± gives the standard deviation of the averaged measurements. Some of the results follow.

This assay concerns PfAP2-I AP2 domain 3 (GST-tagged). The experiment in a line: gcPBM binding intensity (ln(normalized median fluorescence intensity)); higher = stronger DNA binding. In a few lines:
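DNA-binding domains from P. falciparum, fused to GST and produced in E. coli, were put on an Agilent 4 × 180k double-stranded probe array for 1 h in 1× PBS holding 1% milk, 0.2 mg/ml BSA, 0.5% salmon testes DNA and 0.03% Triton X-100. Probes were primer-extended, 36 bp long and drawn from intergenic genomic regions, with negative controls included. After Alexa488 anti-GST antibody detection and a 488 nm scan, binding intensity was set as the highest Masliner-normalised natural-log median intensity across replicate spots of either probe orientation.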
Consider “TATATTGCAAAAAGTACACACATAAATAAATACATA [CACACA_site6589]”, for which the “gcPBM binding intensity (ln)” value was 8.2 ± 0.24.

With “GTAGAGAAAAAAATGTGGACACAAAAAATAAAAAGG [XGTACX_site4058]”, the “gcPBM binding intensity (ln)” value came to 8.43 ± 0.46.

With GTTTATATGTTCATAGTGCATATATGTTGATTTATT, the “gcPBM binding intensity (ln)” value came to 10.2 ± 0.33.

On to “TATAAAAAAAAAAAAAAAAAAAAAAAAAAAAAAAAA [TGCATGCA_negctrl_site42]”, for which the “gcPBM binding intensity (ln)” value is 8.21 ± 0.73.

As to “TTTTTTTTTTTTTACTGTACTTAATAAGATTGAATA [XGTACX_site2384]”, the “gcPBM binding intensity (ln)” value worked out at 8.11 ± 0.59.

On to “CAGGAGAGAAAATATCGTACAAGCAAAAATAAGTGG [XGTACX_site8557]”, for which the “gcPBM binding intensity (ln)” value turned out to be 8.23 ± 0.65.

For “ATAAATATTATTTTACGTACATATTTATGAAGTATT [XGTACX_site8746]”, the “gcPBM binding intensity (ln)” value is 7.92 ± 0.29.

Take “AAATTATAAAAATGTAGTACAGACAATATATTCGTA [XGTACX_site8307]”: the “gcPBM binding intensity (ln)” value was found to be 8.03 ± 0.33.

Regarding “AAATATAATAATACATTGCACATATATTATATATAT [TGCATGCA_negctrl_site611]”, the “gcPBM binding intensity (ln)” value worked out at 8.53 ± 0.64.

“TGTAATAATCTTCATTTCTTTTTTTTTTTTTTTTGT [CACACA_negctrl_site1388]”: the “gcPBM binding intensity (ln)” value is 7.18 ± 0.65.

For the sequence “AGTGAATATTACGAAACACACAAAAAAATACATTTC [CACACA_site511]”, the “gcPBM binding intensity (ln)” value was found to be 7.74 ± 0.59.

Turning to “TAACTTAATAAAAAAAGTACATATATTTTTAATAAA [XGTACX_site2707]”, the “gcPBM binding intensity (ln)” value was determined as 7.6 ± 0.17.

As for “TATTTATTTATTTTGTTATAATTAAAATGGATACAT [XGTACX_negctrl_site387]”, the “gcPBM binding intensity (ln)” value amounted to 7.63 ± 0.44.

Regarding “CTACACACTTATAAATGTACAGGATTTAAGTATATG [XGTACX_site8245]”, the “gcPBM binding intensity (ln)” value worked out at 7.66 ± 0.45.

As for “AGTAGTCTGGAGAAGAGTACATAGTATCTGGTAGCT [XGTACX_site2017]”, the “gcPBM binding intensity (ln)” value worked out at 7.89 ± 0.83.

For “TACAGTAAAAATAGTTGTACTTGTTTATTTCTTCTT [XGTACX_site7674]”, the “gcPBM binding intensity (ln)” value is 7.44 ± 0.4.

For “AAAAGGATATATGAAAGTACAAAGGTATAGTATATT [XGTACX_site7385]”, the “gcPBM binding intensity (ln)” value was 8.09 ± 0.86.

With “ATAATACCAGAATAGATTTAAATGAATATTTTATTT [CACACA_negctrl_site476]”, the “gcPBM binding intensity (ln)” value came to 7.42 ± 0.55.

Take “ATCTTATCATTTTAAAGTACATAATTAATTCTTTTT [XGTACX_site3999]”: the “gcPBM binding intensity (ln)” value was found to be 7.95 ± 0.45.

Consider “TATAACAAATAAAAATGTACATATATATAATATATA [XGTACX_site6173]”, for which the “gcPBM binding intensity (ln)” value is 7.72 ± 0.23.

In the case of “ATGTGTTTGTATATATGTACATATTTATGTTATTTC [XGTACX_site6960]”, the “gcPBM binding intensity (ln)” value worked out at 8.07 ± 0.57.

As for “TATATATATAAATACACACACACAAAAAAAAAAAAA [CACACA_site4930]”, the “gcPBM binding intensity (ln)” value came to 8.41 ± 0.49.

Take AATTTAATTGTGAGAGTGCGTACTGCTCCACATATA: the “gcPBM binding intensity (ln)” value is 8.69 ± 0.042.

On to “AAAAAAAAAAAAAAAAAAAAAAAAAAATGAGATACA [GTGCAC_negctrl_site160]”, for which the “gcPBM binding intensity (ln)” value came to 9.7 ± 0.11.

For “TTTTGATATATGAATATTAAGTTATATAATATTTTA [TGCATGCA_negctrl_site39]”, the “gcPBM binding intensity (ln)” value amounted to 7.26 ± 0.43.

Regarding “GCCGCACCCAGATACGCACACAAGAAAAAAATATTC [CACACA_site3456]”, the “gcPBM binding intensity (ln)” value was 8.705 ± 0.021.

On to “TATGGATAAATAAATACACACATAAATTTAAATATA [CACACA_site1282]”, for which the “gcPBM binding intensity (ln)” value was determined as 7.57 ± 0.61.

Take “TGAACATTATAGAAAAGTACTTAGTTTTTAAAAAGA [XGTACX_site6864]”: the “gcPBM binding intensity (ln)” value turned out to be 7.88 ± 0.4.

As to “TATTCAAAACGGTATTGTACAAATTTTATAATTTAA [XGTACX_site6928]”, the “gcPBM binding intensity (ln)” value was found to be 7.57 ± 0.59.

In the case of “TATAAACGCACCTACACACACAACGTAAATGCATTG [CACACA_site7120]”, the “gcPBM binding intensity (ln)” value is 10.7 ± 0.63.

Take “ATTTTTAAATACAGTACACACATGGGTTTAAATTAT [CACACA_site2884]”: the “gcPBM binding intensity (ln)” value came to 7.87 ± 0.58.

As to “TATTCTAGAATTTTAACACACAAGAATATAAACTTT [CACACA_site6757]”, the “gcPBM binding intensity (ln)” value was 7.58 ± 0.56.

In the case of “TATTTATATTTATATACACACATATATACCTATATA [CACACA_site7820]”, the “gcPBM binding intensity (ln)” value is 7.74 ± 0.52.

With “GATTATTTTAGAAGTACACACATTTATATATAATAA [CACACA_site5429]”, the “gcPBM binding intensity (ln)” value is 8.14 ± 0.25.

With “GGTTATATGATAGGATGTACAATTAAAAGTAAATAT [XGTACX_site5083]”, the “gcPBM binding intensity (ln)” value was determined as 8.22 ± 0.6.

With “TTATTATTCTTAAGGATATAACAAAAAAGAAAAATT [CACACA_negctrl_site1402]”, the “gcPBM binding intensity (ln)” value stood at 7.71 ± 0.83.

For the sequence “TCCTATAAACAAATTTGTACATATAAGAATATATTC [XGTACX_site3892]”, the “gcPBM binding intensity (ln)” value was 7.74 ± 0.44.

Consider “TAAAATATAATGATCACACATATAAACAAGTGGGTA [CACACA_site4651]”, for which the “gcPBM binding intensity (ln)” value came out at 7.6 ± 0.68.

For the sequence “TTTTGTAGATATTGAAGTACAAAAAAAATGTAAAAG [XGTACX_site5905]”, the “gcPBM binding intensity (ln)” value came to 8.09 ± 0.71.

As for “ATCGGTAATATTAACACACACATTTATATATATTTA [CACACA_site1084]”, the “gcPBM binding intensity (ln)” value came to 8.02 ± 0.41.

Take “TATATATCGCCCTTCACACACACACGGATATAAATA [CACACA_site7221]”: the “gcPBM binding intensity (ln)” value was found to be 8.46 ± 0.38.

Take “ATAATAAATATATAATGTACATATTATGTTCTTTAT [XGTACX_site8655]”: the “gcPBM binding intensity (ln)” value came out at 7.64 ± 0.54.

As for “CGCTCTTATAAATGTTGTACATAAAACTGTTCATTA [XGTACX_site3409]”, the “gcPBM binding intensity (ln)” value turned out to be 7.71 ± 0.52.

As for “ATATATATATATATATGTACATATTTGATTTTTCTT [XGTACX_site8171]”, the “gcPBM binding intensity (ln)” value was determined as 9.17 ± 0.31.

Turning to “ACAACATATGTTATCACACACATATAAATATAAATA [CACACA_site7038]”, the “gcPBM binding intensity (ln)” value came out at 7.79 ± 0.45.

For “ATTTTGATGATGTATGCACACATTGAAAATGAGAAA [CACACA_site2916]”, the “gcPBM binding intensity (ln)” value was 8.87 ± 0.42.

“TCACTACATTTTGGACGTACACAACTTGATATATTG [XGTACX_site4775]”: the “gcPBM binding intensity (ln)” value worked out at 7.88 ± 0.73.

With “CACACGCACAGACACACACACACACGGATATAAATA [CACACA_site6301]”, the “gcPBM binding intensity (ln)” value was 8.39 ± 0.28.

As for “TTTTTTTTTTTTTTTTGTACATATAAAAATACGTAA [XGTACX_site6003]”, the “gcPBM binding intensity (ln)” value came out at 8.12 ± 0.66.

Consider “AAATCTTAACTCTATGCACACATAAAAGTATATAAA [CACACA_site8709]”, for which the “gcPBM binding intensity (ln)” value worked out at 9.11 ± 0.014.

Consider ATGATATACTTGAGTGTGCACAAACTATTACTTACA, for which the “gcPBM binding intensity (ln)” value was determined as 10.7 ± 0.17.

Regarding “ATATTTTGATAATATTGTACAAAAACATTAAAATGT [XGTACX_site8361]”, the “gcPBM binding intensity (ln)” value was found to be 7.7 ± 0.42.

On to “AACATTATGTTTATTTGTACATATAAATATATGTAA [XGTACX_site7389]”, for which the “gcPBM binding intensity (ln)” value came out at 7.58 ± 0.31.

“TCTTTTATGATATTTACACACAAACGTGAGATAGCT [CACACA_site2312]”: the “gcPBM binding intensity (ln)” value came out at 7.75 ± 0.64.

On to “CTCTACGAATTCATAGTGCAAAGAGCTAATTTTTTC [GTGCAC_site9710]”, for which the “gcPBM binding intensity (ln)” value amounted to 9.12 ± 0.53.

“GATCATTCAGTTTTATCACACACAATCAAACATATA [CACACA_site8882]”: the “gcPBM binding intensity (ln)” value stood at 8.03 ± 0.56.

In the case of “ATGCGTTAATCTATATATATTATGTATAGATTTTCA [CACACA_negctrl_site1650]”, the “gcPBM binding intensity (ln)” value came to 7.65 ± 0.4.
